# The RNAGym collection of RNA variant scans (doi:10.1073/pnas.2313332121)
# This sample is rich in variants without activity.
# B1: TPR 5TU (parent)
# chain: GGAUCUUCUCGAUCUAACAAAAAAGACAAAUCUGCCACAAAGCUUGAGAGCAUCUUCGGAUGCAGAGGCGGCAGCCUUCGGUGGCGCGAUAGCGCCAACGUUCUCAACUAUGACACGCAAAACGCGUGCUCCGUUGAAUGGAGUUUAUCAUG
# Variants of: B1
# Experiment: polymerase ribozyme fitness, log enrichment relative to wild type (log ratio); higher = more active; in vitro selection for triplet polymerase activity
# Method in brief: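 Fitness compares each genotype's enrichment to that of the wild type on a logarithmic scale, averaging replicates with inverse-variance weights. The logarithm is base 2. Enrichment came from Illumina sequencing of input and output libraries after one triplicate round of in vitro selection, which included frozen incubation at −7 °C, of PCR-built, transcribed mutant libraries of each subunit of a heterodimeric triplet polymerase ribozyme. Only genotypes with ≥10 input reads and ≥1 read per output were kept.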
row,Variant,polymerase ribozyme fitness (log ratio)
1,U7C A49C G59A C87A G117C,≤ -4.2
2,C8A A12C C32U C76U C85G C99G G117U,≤ -4.2
3,U6G U53C U55G A64G A91U,≤ -4.2
4,U7A G34A C35G G59U C87U C93G G128C,≤ -4.2
5,C8A C14A A28U C51U C76G U139A G141U,≤ -4.2
6,U6C A49C U55A U104C U146C,≤ -4.2
7,U7C A23U G25U A37G C93G,≤ -4.2
8,U6C G48C G65A U78A G80A G88C C95U C108U A110C,≤ -4.2
9,U7C G68C C125A,≤ -4.2
10,C8A C35U C43A G83C G141U,≤ -4.2
11,C8A A17C A26C A40C C87U U144G,≤ -4.2
12,U7C G46A A52C C87A,≤ -4.2
13,C8A A16G A30G A47G G58A U78C G136U,≤ -4.2
14,U6G U13G A16G C85G G86A A142G,≤ -4.2
15,U6G A20U A21G A24G A26U C51U G94U A98C A120G U139A G140U,≤ -4.2
16,U6A U56A,-0.431
17,U7G C35A A47C C105G A107G,≤ -4.2
18,U6A C51G G59U G68C G86U A97U C99U G100C,≤ -4.2
19,U7G C8U U15G A17U C38A G48U G92C,≤ -4.2
20,U7A A28C A52C C103U,≤ -4.2
21,U7G A20G A30U C43A G46C A47U C57A G117U,≤ -4.2

row,Variant,polymerase ribozyme fitness (log ratio)
1,U6C A19U U61A C75G G141A U148C,≤ -4.2
2,C8A A17U A23U A26G C27G U90G G92A A115C,≤ -4.2
3,U6A U9A A17G A29U C69A A91U,≤ -4.2
4,C8A A73G C93A U146C,-4.17
5,U7G G83A A91U C131U,-3.4
6,C8A C14G C27A C57U A91G G94U U134A G143A,≤ -4.2
7,U6C A30C G50C G86U A115U,≤ -4.2
8,U7C A24U A52U G71A U78A G94A,≤ -4.2
9,U6C A19U G25C G58U A66C G80A C85A A97C A98C U104G,≤ -4.2
10,U6A C10U U53C C54G C79G C93A C95U A113C,≤ -4.2
11,U6C U44A U61G A66G C95G U104G G112U C116U A147U,≤ -4.2
12,C8A A30C G46A C54G G92U C95G,≤ -4.2
13,U6G A16C A22U C51U C76U C85A C118U,-3.97
14,C8A C72U,≤ -4.2
15,U6G C75A U82C G84U C85G C87U,≤ -4.2
16,C8A A23G G48U A73G C93U U127A,≤ -4.2
17,C8A A41G U53A C72A C93G U102G U109G,≤ -4.2
18,U7C A30U A49G G68C C85G A107U A110C U146G,≤ -4.2
19,U7C A19C C57G C85U C96U U148A,≤ -4.2
20,U7A A47C G83C G88U A113G C116A,≤ -4.2
21,U7G A41C C85U A98G C99U C108A G112C G136C,≤ -4.2

row,Variant,polymerase ribozyme fitness (log ratio)
1,U6A U56A G92C G100A C132G,≤ -4.2
2,U6G A12U A28C G65U U127G,≤ -4.2
3,U6C A24C U55A U139C,≤ -4.2
4,U7A G11A A12C U13A U45C C51U A60C C76G G86U G92C U135C,≤ -4.2
5,U6C A19U A20U A22U A30G C87U C105U C132U,≤ -4.2
6,U7G A20G G42C A52U C57A C72A A89U A97U,≤ -4.2
7,U7A C43U A49G A110G,≤ -4.2
8,U6A C51U A52U U56A G83U G84A C114U,≤ -4.2
9,U7G A21U A24C G58A,≤ -4.2
10,U6G U77A G83U U102G,≤ -4.2
11,U6C A23U C36U,≤ -4.2
12,C8A A49G G74A G86U G141U U148G,≤ -4.2
13,U7G C14U U90C G143A,≤ -4.2
14,U7G C63G C76G C93G A97U C99G A106U,≤ -4.2
15,U6G A12U A39U A89U C95A A115U G152A,≤ -4.2
16,U7A A20G C35U A47G G83A C96A,≤ -4.2
17,U6G U13C A19G U45A A52U C79U C87A,≤ -4.2
18,U6A C8A C54A C93G C118U U146A,≤ -4.2
19,U7C A12G C96U,-2.17
20,U7G A23G,≤ -4.2
21,U6G A39C G46C G74A U90A C93U A122G C125A,≤ -4.2

row,Variant,polymerase ribozyme fitness (log ratio)
1,U7G U56A G83A C87A A115G U139A,≤ -4.2
2,U7G U55A G62C G92A,≤ -4.2
3,U7A A16C A29C G83U A106U C116A,≤ -4.2
4,U6C A24C C87A A107G,≤ -4.2
5,U6C C32A A49U G70U U82G C87U C105G,≤ -4.2
6,U7G G50C G58U C63U C76A G92A C149G,≤ -4.2
7,U6C A41U C69G C96A A115U,≤ -4.2
8,U6G A49G C99G A106G C116G C129A A138U U148G C149G,≤ -4.2
9,U7C A20G G25U A39U A73U A89C G126U U148C,≤ -4.2
10,C8A A26G A37C G62A A120G G140C G152A,-4.13
11,U6G A39C C85A A98G G126C,-3.91
12,C8A A29C A47C C54G A120U,≤ -4.2
13,U7G U45A C57U C76A G83A G84A,≤ -4.2
14,U7C A41U G42A U53G C76G G84A C95A C131G U135A,≤ -4.2
15,U7C C18G G86A U148A,-4.2
16,U7G U15A G58U G70C A91G,≤ -4.2
17,U7C C18G C43G G48A G58C C63U C76G,≤ -4.2
18,U7G G34C U56A G59A,≤ -4.2
19,U7G G25C C54U C69G C87G C99A G140A U146A A150G,≤ -4.2
20,U6G C57G C85U A98U,-1.17
21,U7A A47C G88A C99U,≤ -4.2
